Test results reported in the supplement of paper PMC6089552.
Among all 3,200 compounds or so, about 300 (9.4%) showed activity. The entries are a selection whose mix differs from that of the whole data set.

System: A673/TR/shEF
Test: cell viability (LOESS-normalised, relative to median of negative controls) (log2 ratio); higher = more viable cells (less compound effect), active = hit call of the paper (over 3 MAD below the median)
Details: treatment time: 72 h
How it was run: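 A673/TR/shEF Ewing sarcoma cells (1,500 per well, 384-well plates) were grown with or without doxycycline to induce EWS-FLI1 shRNA knockdown, starting 24 h before compounds. Library compounds at two or more concentrations, with DMSO controls, were added for three days. Cell viability was read by CellTiter-Glo luminescence on an Envision reader, then LOESS-corrected per plate, divided by the median of negative controls and log2-transformed. Hits were wells at least three median absolute deviations from the median of all screened wells.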

[1] = 0.103 µM, library screen: screen3, EWS-FLI1 expression: high (no doxycycline)
[2] = 0.103 µM, library screen: screen3, EWS-FLI1 expression: low (doxycycline-induced shRNA knockdown)
[3] = 0.25 µM, library screen: screen1, EWS-FLI1 expression: high (no doxycycline)
[4] = 0.25 µM, library screen: screen1, EWS-FLI1 expression: low (doxycycline-induced shRNA knockdown)
[5] = 0.25 µM, library screen: screen2, EWS-FLI1 expression: high (no doxycycline)
[6] = 0.25 µM, library screen: screen2, EWS-FLI1 expression: low (doxycycline-induced shRNA knockdown)
[7] = 0.308 µM, library screen: screen3, EWS-FLI1 expression: high (no doxycycline)
[8] = 0.308 µM, library screen: screen3, EWS-FLI1 expression: low (doxycycline-induced shRNA knockdown)
[9] = 0.926 µM, library screen: screen3, EWS-FLI1 expression: high (no doxycycline)
[10] = 0.926 µM, library screen: screen3, EWS-FLI1 expression: low (doxycycline-induced shRNA knockdown)
[11] = 2.5 µM, library screen: screen1, EWS-FLI1 expression: high (no doxycycline)
[12] = 2.5 µM, library screen: screen1, EWS-FLI1 expression: low (doxycycline-induced shRNA knockdown)
[13] = 2.5 µM, library screen: screen2, EWS-FLI1 expression: high (no doxycycline)
[14] = 2.5 µM, library screen: screen2, EWS-FLI1 expression: low (doxycycline-induced shRNA knockdown)
[15] = 2.8 µM, library screen: screen3, EWS-FLI1 expression: high (no doxycycline)
[16] = 2.8 µM, library screen: screen3, EWS-FLI1 expression: low (doxycycline-induced shRNA knockdown)
[17] = 8.3 µM, library screen: screen3, EWS-FLI1 expression: high (no doxycycline)
[18] = 8.3 µM, library screen: screen3, EWS-FLI1 expression: low (doxycycline-induced shRNA knockdown)
[19] = 25 µM, library screen: screen3, EWS-FLI1 expression: high (no doxycycline)
[20] = 25 µM, library screen: screen3, EWS-FLI1 expression: low (doxycycline-induced shRNA knockdown)

Measured: cell viability (log2)

CC(C)(C)NCC(O)c1ccc(O)c(CO)c1 (stereo not drawn)
inactive: [1] 0.115 | [2] 0.0479 | [3] 0.11 | [4] 0.0606 | [5] 0.14 | [6] 0.0933 | [7] 0.0457 | [8] 0.00999 | [9] 0.0542 | [10] 0.0551 | [11] 0.161 | [12] 0.0729 | [13] 0.216 | [14] 0.0566 | [15] 0.102 | [16] 0.042 | [17] 0.0553 | [18] 0.0618 | [19] 0.0637 | [20] 0.0595

CC(C)=CCc1c2c(c(O)c3c(=O)c(O)c(-c4ccccc4)oc13)C=CC(C)(C)O2
inactive: [3] 0.0748 | [4] 0.0709 | [11] 0.0792 | [12] 0.116

CN(C)[C@@H](CCOc1cccc2ccccc12)c1ccccc1
inactive: [1] 0.00919 | [2] 0.105 | [7] 0.0155 | [8] 0.101 | [9] 0.111 | [10] 0.00844 | [15] 0.127 | [16] 0.138 | [17] -0.0355 | [18] 0.059 | [19] 0.0839 | [20] 0.0383

Nn1nnc2ccccc21
inactive: [5] 0.128 | [6] 0.171 | [13] 0.0307 | [14] 0.0733

CN(C)CCCC1(c2ccc(F)cc2)OCc2cc(C#N)ccc21 (stereo not drawn)
inactive: [5] 0.166 | [6] 0.0806 | [13] 0.0347 | [14] 0.0427

CCCC(CCC)C(=O)O
inactive: [1] 0.0654 | [2] 0.0359 | [3] 0.127 | [4] 0.0898 | [5] 0.1 | [6] 0.102 | [7] 0.0959 | [8] 0.0314 | [9] -0.00782 | [10] 0.0593 | [11] 0.159 | [12] 0.24 | [13] 0.102 | [14] 0.0392 | [15] 0.0123 | [16] 0.0886 | [17] 0.0187 | [18] 0.0553 | [19] -0.0053 | [20] 0.0943

O=C(O)CNC(=O)C(CS)Cc1ccccc1 (stereo not drawn)
inactive: [5] 0.00126 | [6] 0.153 | [13] 0.146 | [14] 0.0189

COC[C@@H](c1ccc(C(F)(F)F)cc1)N1CCN(C2(C)CCN(C(=O)c3c(C)ncnc3C)CC2)C[C@@H]1C
inactive: [1] 0.0241 | [2] 0.0743 | [7] 0.103 | [8] 0.0427 | [9] 0.0552 | [10] 0.0603 | [15] 0.0435 | [16] -0.0282 | [17] 0.118 | [18] 0.021 | [19] 0.0244 | [20] 0.00778

Cc1onc(-c2ccccc2)c1C(=O)N[C@@H]1C(=O)N2[C@@H]1SC(C)(C)[C@@H]2C(=O)O
inactive: [3] 0.0236 | [4] 0.0369 | [11] 0.14 | [12] 0.0664

COc1ccccc1CNCCCCCCNCCCCCCCCNCCCCCCNCc1ccccc1OC
inactive: [5] 0.191 | [6] 0.119 | [13] 0.173 | [14] 0.0261

CC1(C)O[C@H]2[C@H](O)C[C@](O)(C(N)=O)C[C@H]2O1
inactive: [3] -0.0199 | [4] -0.00566 | [11] 0.076 | [12] 0.0924

COc1c2c(cc3occ(-c4ccc5c(c4)OCO5)c(=O)c13)OC(C)(C)C=C2
active: [3] -0.144

COC1=CC(=O)C[C@@H](C)[C@]12Oc1c(Cl)c(OC)cc(OC)c1C2=O
inactive: [3] 0.0797 | [4] 0.0471 | [11] 0.105 | [12] 0.048

CCC(=O)NCC[C@@H]1CCc2ccc3c(c21)CCO3
inactive: [1] 0.0633 | [2] 0.0965 | [7] 0.12 | [8] 0.0812 | [9] 0.0466 | [10] 0.0558 | [15] 0.132 | [16] 0.0504 | [17] 0.111 | [18] 0.0117 | [19] 0.0563 | [20] 0.117

COc1ccc(-c2coc3cc(O)cc(O)c3c2=O)cc1
inactive: [3] 0.0602 | [4] 0.0877 | [11] 0.109 | [12] 0.152

COc1ccccc1N1CCN(CCN2C(=O)CC3(CCCC3)CC2=O)CC1
inactive: [5] 0.133 | [6] 0.109 | [13] 0.153 | [14] 0.0757

COc1cc2c(cc1OC)C(=O)OC2
inactive: [3] 0.0843 | [4] 0.0499 | [11] 0.167 | [12] 0.0734

OCC(O)CN1CCN(c2ccccc2)CC1 (stereo not drawn)
inactive: [3] 0.147 | [4] 0.0623 | [11] 0.169 | [12] 0.148

CN(C)CCC(c1ccc(Cl)cc1)c1ccccn1 (stereo not drawn)
inactive: [3] 0.105 | [4] 0.0524 | [5] 0.231 | [6] 0.122 | [11] 0.0791 | [12] 0.136 | [13] 0.105 | [14] 0.0734

COc1ccc(C(=O)C=Cc2ccccc2)cc1
inactive: [3] 0.0817 | [4] 0.0563 | [11] 0.0612 | [12] 0.0356

CCn1cc(C(=O)O)c(=O)c2cc(F)c(N3CCNCC3)cc21
inactive: [1] 0.145 | [2] 0.0496 | [3] 0.0684 | [4] 0.0633 | [7] 0.0139 | [8] 0.058 | [9] 0.0138 | [10] 0.121 | [11] 0.0971 | [12] 0.0702 | [15] 0.0866 | [16] 0.115 | [17] 0.0448 | [18] 0.11 | [19] 0.0361 | [20] 0.156

COC(=O)c1c(C)cc(OC(=O)c2c(C)cc(O)c(CO)c2O)c(C)c1O
inactive: [3] 0.129 | [4] 0.0318 | [11] 0.139 | [12] 0.0883

CC(=O)O[C@@H]1C=C[C@@]2(C)C(C[C@@H](OC(C)=O)[C@@]3(C)C4=CC(=O)O[C@@H](c5ccoc5)[C@]4(C)CCC23)C1(C)C (stereo partly drawn)
inactive: [3] 0.0555 | [4] 0.12 | [11] 0.1 | [12] 0.125

COc1c(Cl)c(C)c2c(c1Cl)OC(=O)c1c(C)c(Cl)c(O)c(Cl)c1O2
inactive: [3] 0.0361 | [4] 0.0285 | [11] 0.0998 | [12] 0.0885

CC1(C)S[C@@H]2[C@H](N3C(=O)[C@@H](c4ccccc4)NC3(C)C)C(=O)N2[C@H]1C(=O)O
inactive: [3] 0.142 | [4] -0.0693 | [11] 0.203 | [12] 0.125

CCOC(=O)C1=C(C)NC(C)=C(C(=O)OC)C1c1cccc([N+](=O)[O-])c1 (stereo not drawn)
inactive: [3] 0.155 | [4] 0.101 | [5] 0.0744 | [6] 0.0855 | [11] 0.176 | [12] 0.127 | [13] 0.102 | [14] 0.0903

NCC1OC(OC2C(N)CC(N)C(OC3OC(CO)C(O)C(N)C3O)C2O)C(N)C(O)C1O (stereo not drawn)
inactive: [3] 0.0483 | [4] 0.0336 | [11] 0.164 | [12] 0.0237

CC(CN1c2ccccc2Sc2ccccc21)N(C)C (stereo not drawn)
inactive: [3] 0.0849 | [4] 0.173 | [5] 0.103 | [6] 0.084 | [11] 0.117 | [12] 0.228 | [13] 0.14 | [14] 0.00694

CNC(=O)c1ccccc1Sc1ccc2c(/C=C/c3ccccn3)n[nH]c2c1
active: [17] -0.181 | [19] -0.513
inactive: [1] -0.00228 | [2] 0.0386 | [7] 0.0978 | [8] 0.044 | [9] 0.0712 | [10] 0.145 | [15] 0.0241 | [16] 0.188 | [18] 0.195 | [20] -0.0147

O=C(CCCCCCCCCCCCC1CCCC1)Nc1ccc(S(=O)(=O)c2ccc(NC(=O)CCCCCCCCCCCCC3CCCC3)cc2)cc1
inactive: [3] 0.0586 | [4] 0.0308 | [11] 0.0372 | [12] 0.0442

CC(C(=O)O)N1C(=O)C(=Cc2ccccn2)SC1=S (stereo not drawn)
inactive: [11] 0.144 | [12] 0.106
active: [3] -2.05 | [4] -1.9

NS(=O)(=O)c1cc2c(cc1C(F)(F)F)NC(Cc1ccccc1)NS2(=O)=O (stereo not drawn)
inactive: [3] 0.0917 | [4] 0.0266 | [11] 0.0731 | [12] 0.0411

O=C1c2ccccc2-c2n[nH]c3cccc1c23
active: 25 µM, library screen: screen1, EWS-FLI1 expression: high (no doxycycline) -0.11

O=C(c1ccc(OCCN2CCCCC2)cc1)c1c(-c2ccc(O)cc2)sc2cc(O)ccc12
inactive: [1] 0.0446 | [2] 0.0571 | [5] 0.148 | [6] 0.0346 | [7] 0.00719 | [8] 0.00103 | [9] -0.0145 | [10] 0.0373 | [13] 0.144 | [14] 0.0618 | [15] -0.0223 | [16] 0.0185 | [17] -0.0365 | [18] 0.0225 | [19] -0.175 | [20] -0.0203

Cc1cc(O)cc(=O)o1
inactive: [3] 0.041 | [4] -0.033 | [11] 0.0868 | [12] -0.00159

S=P(N1CC1)(N1CC1)N1CC1
inactive: [3] 0.117 | [4] 0.07 | [11] 0.0849 | [12] 0.0978
